Experimental data as given in the supplement of paper PMC8728848.
This is one part of the list.

Key:
Assay in all cases: glycan array binding signal (z-score within array); higher = stronger binding
Details in all cases: glycan notation: IUPAC condensed, linker removed
[1] = target: Fuc(a1-2)Gal(b1-4)GlcNAc(b1-3)[Fuc(a1-3)[Gal(b1-4)]GlcNAc(b1-6)]Gal(b1-4)Glc
How it was run: (§1)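 Glycan array data were curated from 3228 arrays in the Consortium for Functional Glycomics database and kept only where the protein sequence was available. Glycan names were converted to IUPAC-condensed notation, and columns mapping to the same glycan were averaged. The binding signal is a within-array Z-score, averaged across arrays of the same protein sequence at different concentrations or buffers and across linkers. Negative Z-scores can be read as non-binding.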

[2] = target: Fuc(a1-2)Gal(b1-4)GlcNAc(b1-6)GalNAc
How it was run: as §1

[3] = target: Fuc(a1-2)Gal(b1-4)GlcNAc6S
How it was run: as §1

[4] = target: Fuc(a1-2)Gal(b1-4)[Fuc(a1-3)]GalNAc(b1-3)Gal(b1-4)[Fuc(a1-3)]GlcNAc
How it was run: as §1

[5] = target: Fuc(a1-2)Gal(b1-4)[Fuc(a1-3)]GalNAc(b1-3)Gal(b1-4)[Fuc(a1-3)]GlcNAc(b1-3)Gal(b1-4)[Fuc(a1-3)]GalNAc
How it was run: as §1

[6] = target: Fuc(a1-2)Gal(b1-4)[Fuc(a1-3)]GlcNAc
How it was run: as §1

[7] = target: Fuc(a1-2)Gal(b1-4)[Fuc(a1-3)]GlcNAc(b1-2)Man(a1-3)[Fuc(a1-2)Gal(b1-4)[Fuc(a1-3)]GlcNAc(b1-2)Man(a1-6)]Man(b1-4)GlcNAc(b1-4)GlcNAc
How it was run: as §1

[8] = target: Fuc(a1-2)Gal(b1-4)[Fuc(a1-3)]GlcNAc(b1-2)Man(a1-3)[Fuc(a1-2)Gal(b1-4)[Fuc(a1-3)]GlcNAc(b1-2)Man(a1-6)]Man(b1-4)GlcNAc(b1-4)[Fuc(a1-6)]GlcNAc
How it was run: as §1

[9] = target: Fuc(a1-2)Gal(b1-4)[Fuc(a1-3)]GlcNAc(b1-2)[Fuc(a1-2)Gal(b1-4)[Fuc(a1-3)]GlcNAc(b1-4)]Man(a1-3)[Fuc(a1-2)Gal(b1-4)[Fuc(a1-3)]GlcNAc(b1-2)Man(a1-6)]Man(b1-4)GlcNAc(b1-4)GlcNAc
How it was run: as §1

[10] = target: Fuc(a1-2)Gal(b1-4)[Fuc(a1-3)]GlcNAc(b1-3)Gal(b1-4)[Fuc(a1-3)]GlcNAc
How it was run: as §1

[11] = target: Fuc(a1-2)Gal(b1-4)[Fuc(a1-3)]GlcNAc(b1-3)Gal(b1-4)[Fuc(a1-3)]GlcNAc(b1-3)Gal(b1-4)[Fuc(a1-3)]GlcNAc
How it was run: as §1

[12] = target: Fuc(a1-2)Gal(b1-4)[Fuc(a1-3)]GlcNAc(b1-3)GalNAc
How it was run: as §1

[13] = target: Fuc(a1-2)Gal(b1-4)[Fuc(a1-3)]GlcNAc(b1-3)[Neu5Ac(a2-6)Gal(b1-4)GlcNAc(b1-6)]Gal(b1-4)Glc
How it was run: as §1

[14] = target: Fuc(a1-2)Gal3S(b1-4)GlcNAc
How it was run: as §1

[15] = target: Fuc(a1-2)Gal6S(b1-3)GlcNAc
How it was run: as §1

[16] = target: Fuc(a1-2)Gal6S(b1-3)GlcNAc6S
How it was run: as §1

Fuc(a1-2)Gal6S(b1-4)Glc = target: Fuc(a1-2)Gal6S(b1-4)Glc
How it was run: as §1

[17] = target: Fuc(a1-2)Gal6S(b1-4)Glc6S
How it was run: as §1

[18] = target: Fuc(a1-2)Gal6S(b1-4)GlcNAc
How it was run: as §1

Fuc(a1-2)GlcNAc = target: Fuc(a1-2)GlcNAc
How it was run: as §1

Fuc(a1-2)[Gal(a1-3)]Gal = target: Fuc(a1-2)[Gal(a1-3)]Gal
How it was run: as §1

[19] = target: Fuc(a1-2)[Gal(a1-3)]Gal(b1-3)GalNAc
How it was run: as §1

[20] = target: Fuc(a1-2)[Gal(a1-3)]Gal(b1-3)GalNAc(b1-3)Gal(a1-4)Gal(b1-4)Glc
How it was run: as §1

[21] = target: Fuc(a1-2)[Gal(a1-3)]Gal(b1-3)GlcNAc
How it was run: as §1

[22] = target: Fuc(a1-2)[Gal(a1-3)]Gal(b1-3)GlcNAc(b1-2)Man(a1-3)[Fuc(a1-2)[Gal(a1-3)]Gal(b1-3)GlcNAc(b1-2)Man(a1-6)]Man(b1-4)GlcNAc(b1-4)GlcNAc
How it was run: as §1

[23] = target: Fuc(a1-2)[Gal(a1-3)]Gal(b1-3)GlcNAc(b1-2)Man(a1-3)[Fuc(a1-2)[Gal(a1-3)]Gal(b1-3)GlcNAc(b1-2)Man(a1-6)]Man(b1-4)GlcNAc(b1-4)[Fuc(a1-6)]GlcNAc
How it was run: as §1

[24] = target: Fuc(a1-2)[Gal(a1-3)]Gal(b1-3)GlcNAc(b1-3)GalNAc
How it was run: as §1

[25] = target: Fuc(a1-2)[Gal(a1-3)]Gal(b1-3)GlcNAc(b1-6)GalNAc
How it was run: as §1

[26] = target: Fuc(a1-2)[Gal(a1-3)]Gal(b1-4)Glc
How it was run: as §1

[27] = target: Fuc(a1-2)[Gal(a1-3)]Gal(b1-4)GlcNAc
How it was run: as §1

[28] = target: Fuc(a1-2)[Gal(a1-3)]Gal(b1-4)GlcNAc(b1-2)Man
How it was run: as §1

[29] = target: Fuc(a1-2)[Gal(a1-3)]Gal(b1-4)GlcNAc(b1-2)Man(a1-3)[Fuc(a1-2)[Gal(a1-3)]Gal(b1-4)GlcNAc(b1-2)Man(a1-6)]Man(b1-4)GlcNAc(b1-4)GlcNAc
How it was run: as §1

[30] = target: Fuc(a1-2)[Gal(a1-3)]Gal(b1-4)GlcNAc(b1-2)Man(a1-3)[Fuc(a1-2)[Gal(a1-3)]Gal(b1-4)GlcNAc(b1-2)Man(a1-6)]Man(b1-4)GlcNAc(b1-4)[Fuc(a1-6)]GlcNAc
How it was run: as §1

[31] = target: Fuc(a1-2)[Gal(a1-3)]Gal(b1-4)GlcNAc(b1-3)GalNAc
How it was run: as §1

[32] = target: Fuc(a1-2)[Gal(a1-3)]Gal(b1-4)GlcNAc(b1-3)[Fuc(a1-2)[Gal(a1-3)]Gal(b1-4)GlcNAc(b1-6)]GalNAc
How it was run: as §1

[33] = target: Fuc(a1-2)[Gal(a1-3)]Gal(b1-4)GlcNAc(b1-6)GalNAc
How it was run: as §1

[34] = target: Fuc(a1-2)[Gal(a1-3)]Gal(b1-4)[Fuc(a1-3)]Glc
How it was run: as §1

[35] = target: Fuc(a1-2)[Gal(a1-3)]Gal(b1-4)[Fuc(a1-3)]GlcNAc
How it was run: as §1

B1: Nictaba (Nicotiana tabacum), Q94EW1 (protein)
chain: MQGQWIAARDLSITWVDNPQYWTWKTVDPNIEVAELRRVAWLDIYGKIETKNLIRKTSYAVYLVFKLTDNPRELERATASLRFVNEVAEGAGIEGTTVFISKKKKLPGELGRFPHLRSDGWLEIKLGEFFNNLGEDGEVEMRLMEINDKTWKSGIIVKGFDIRPN
With B1 the “glycan array binding signal (z-score)” value [1] was -0.384, the “glycan array binding signal (z-score)” value [2] was -0.385 and the “glycan array binding signal (z-score)” value [3] was -0.261. The “glycan array binding signal (z-score)” value [4] was -0.268, the “glycan array binding signal (z-score)” value [5] was -0.365 and the “glycan array binding signal (z-score)” value [6] was -0.289. The “glycan array binding signal (z-score)” value [7] was 1.9, the “glycan array binding signal (z-score)” value [8] was 5.19 and the “glycan array binding signal (z-score)” value [9] was 1.78. For the same binder, the “glycan array binding signal (z-score)” value [10] was -0.299, the “glycan array binding signal (z-score)” value [11] was -0.29 and the “glycan array binding signal (z-score)” value [12] was -0.21. For the same binder, the “glycan array binding signal (z-score)” value [13] was -0.388, the “glycan array binding signal (z-score)” value [14] was -0.39 and the “glycan array binding signal (z-score)” value [15] was -0.386. The “glycan array binding signal (z-score)” value [16] was -0.381, the “glycan array binding signal (z-score)” value (Fuc(a1-2)Gal6S(b1-4)Glc) was -0.247 and the “glycan array binding signal (z-score)” value [17] was -0.234. For the same binder, the “glycan array binding signal (z-score)” value [18] was -0.246, the “glycan array binding signal (z-score)” value (Fuc(a1-2)GlcNAc) was -0.188 and the “glycan array binding signal (z-score)” value (Fuc(a1-2)[Gal(a1-3)]Gal) was -0.335. For the same binder, the “glycan array binding signal (z-score)” value [19] was -0.328, the “glycan array binding signal (z-score)” value [20] was -0.384 and the “glycan array binding signal (z-score)” value [21] was -0.312. For the same binder, the “glycan array binding signal (z-score)” value [22] was 0.304, the “glycan array binding signal (z-score)” value [23] was -0.187 and the “glycan array binding signal (z-score)” value [24] was -0.247. The “glycan array binding signal (z-score)” value [25] was -0.387, the “glycan array binding signal (z-score)” value [26] was -0.293 and the “glycan array binding signal (z-score)” value [27] was -0.27. The “glycan array binding signal (z-score)” value [28] was -0.388, the “glycan array binding signal (z-score)” value [29] was 2.23 and the “glycan array binding signal (z-score)” value [30] was 0.417. For the same binder, the “glycan array binding signal (z-score)” value [31] was -0.273, the “glycan array binding signal (z-score)” value [32] was -0.385 and the “glycan array binding signal (z-score)” value [33] was -0.389. For the same binder, the “glycan array binding signal (z-score)” value [34] was -0.288 and the “glycan array binding signal (z-score)” value [35] was -0.316.
